Our source for the IC50 values is patent publication US7585851B2, “3′-prodrugs of 2′-deoxy-β-L-nucleosides” (priority 2000, dated 2009).

Like-named read-outs stand apart in the source and are kept apart here. A value given as a limit tells only on which side of the number the result lay.

As usually defined, the IC50 is the concentration that inhibits the measured activity by half.

The target of assay [1] is T1, human DNA polymerase α (Homo sapiens, UniProt P09884).
T1 sequence (P09884 1-1462): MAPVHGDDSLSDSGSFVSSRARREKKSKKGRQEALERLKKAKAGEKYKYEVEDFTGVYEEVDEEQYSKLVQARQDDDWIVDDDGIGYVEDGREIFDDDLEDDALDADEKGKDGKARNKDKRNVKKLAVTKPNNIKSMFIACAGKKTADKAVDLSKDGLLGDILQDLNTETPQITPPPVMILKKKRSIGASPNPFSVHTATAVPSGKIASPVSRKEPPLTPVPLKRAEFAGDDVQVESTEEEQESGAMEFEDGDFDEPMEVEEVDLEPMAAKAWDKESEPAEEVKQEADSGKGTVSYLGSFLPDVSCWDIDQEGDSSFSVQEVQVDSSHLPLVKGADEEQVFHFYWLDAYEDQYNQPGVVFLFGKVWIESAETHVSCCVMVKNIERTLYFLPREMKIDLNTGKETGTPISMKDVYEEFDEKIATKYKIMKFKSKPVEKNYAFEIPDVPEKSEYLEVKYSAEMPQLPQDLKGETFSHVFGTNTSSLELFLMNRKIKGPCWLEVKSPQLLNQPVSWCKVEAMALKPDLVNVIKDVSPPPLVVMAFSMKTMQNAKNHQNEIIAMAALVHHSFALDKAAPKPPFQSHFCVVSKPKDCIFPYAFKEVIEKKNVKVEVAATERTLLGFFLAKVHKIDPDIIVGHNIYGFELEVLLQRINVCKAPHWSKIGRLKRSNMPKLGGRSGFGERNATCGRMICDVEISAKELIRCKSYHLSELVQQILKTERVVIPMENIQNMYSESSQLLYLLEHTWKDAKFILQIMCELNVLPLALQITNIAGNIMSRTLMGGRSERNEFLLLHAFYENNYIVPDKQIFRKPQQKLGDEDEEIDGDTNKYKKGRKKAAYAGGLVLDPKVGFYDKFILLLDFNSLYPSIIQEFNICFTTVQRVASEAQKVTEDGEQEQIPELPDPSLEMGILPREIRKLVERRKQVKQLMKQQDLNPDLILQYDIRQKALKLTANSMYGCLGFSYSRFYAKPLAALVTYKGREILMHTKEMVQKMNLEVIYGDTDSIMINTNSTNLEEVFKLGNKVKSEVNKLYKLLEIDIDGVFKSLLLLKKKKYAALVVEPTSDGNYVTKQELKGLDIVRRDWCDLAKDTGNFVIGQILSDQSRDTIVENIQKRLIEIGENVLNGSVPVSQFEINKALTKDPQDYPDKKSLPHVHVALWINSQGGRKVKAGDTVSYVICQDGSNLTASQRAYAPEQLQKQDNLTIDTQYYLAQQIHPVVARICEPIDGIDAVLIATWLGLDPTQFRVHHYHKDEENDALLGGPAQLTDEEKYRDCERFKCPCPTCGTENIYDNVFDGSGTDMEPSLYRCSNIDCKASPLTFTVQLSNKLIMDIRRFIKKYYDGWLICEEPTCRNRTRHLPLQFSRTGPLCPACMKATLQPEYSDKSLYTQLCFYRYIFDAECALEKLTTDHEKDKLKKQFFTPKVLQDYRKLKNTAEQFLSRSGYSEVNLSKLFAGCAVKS
The class given is biochemical. As to conditions: highest concentration tested 100 μM; read-out: IC50 Human DNA pol α. The text has this:
Nucleosides and nucleoside analogs are usually metabolized within cells to their TP derivatives. Cellular DNA polymerases are routinely responsible for normal nuclear and mitochondrial DNA synthesis and repair. Because the TP metabolites are potential substrates for DNA polymerases, studies were undertaken to determine if L-dC-TP inhibited human DNA polymerases.

The target of assay [2] is T1, human DNA polymerase α. Particulars: from Chang, et al. / Yao, read-out: IC50 Human DNA pol α; cited from earlier work.

As for `Nc1ccn([C@@H]2C[C@@H](O)[C@H](COP(=O)(O)OP(=O)(O)OP(=O)(O)O)O2)c(=O)n1` [L-dC-TP], the IC50 on human DNA polymerase α [1] was above 100 µM.

Regarding `O=c1ccn([C@@H]2C[C@@H](O)[C@H](COP(=O)(O)OP(=O)(O)OP(=O)(O)O)O2)c(=O)[nH]1` [L-dU-TP, β-L-2′-deoxyuridine 5′-triphosphate], on human DNA polymerase α [1], the 50% inhibitory concentration (IC50) is above 100 µM.

In the case of `Nc1ccn([C@@H]2CS[C@H](COP(=O)(O)OP(=O)(O)OP(=O)(O)O)O2)c(=O)n1` [Lamivudine-TP], on human DNA polymerase α [2], the IC50 is above 5 µM.

In the case of `Cc1cn([C@H]2O[C@@H](COP(=O)(O)OP(=O)(O)OP(=O)(O)O)[C@H](O)[C@H]2F)c(=O)[nH]c1=O` [L-FMAU-TP], the IC50 on human DNA polymerase α [2] was above 50 µM.
